Some of the results follow.
Each sequence was assayed against T1, OsWOX13 (Oryza sativa, UniProt Q5QMM3 1-267) (assay: protein-binding microarray (RPBM); PBS, 2% BSA, 51.3 ng/ul salmon testes DNA, 50 uM zinc acetate, 200 nM TF, 25 C, 1 h; high values mean tight binding). Settings: protein: recombinant; tags: N-terminal polyhistidine and DsRed monomer fusion (pET32a); label: CyDye5-dUTP incorporated in the synthesized complementary strand; 3' TTTTT single-stranded linker to array surface; dsDNA, one strand shown.
T1 sequence: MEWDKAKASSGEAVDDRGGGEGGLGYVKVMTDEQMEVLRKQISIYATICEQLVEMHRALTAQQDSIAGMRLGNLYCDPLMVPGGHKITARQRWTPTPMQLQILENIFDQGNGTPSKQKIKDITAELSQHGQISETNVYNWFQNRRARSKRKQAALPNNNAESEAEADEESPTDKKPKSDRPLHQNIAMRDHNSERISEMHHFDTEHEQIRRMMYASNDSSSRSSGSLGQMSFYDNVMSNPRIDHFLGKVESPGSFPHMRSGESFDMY
Summary of the method: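 Binding signal is reported as fluorescence intensity per feature (arbitrary units) from an Axon 4000B scanner. Incubation used 200 nM of each Ni–NTA-purified, N-terminally polyhistidine- and DsRed-fused transcription factor from E. coli BL21-CodonPlus on a double-stranded custom Agilent array for 1 h at 25 °C, with 50 µM zinc acetate in the buffer, followed by washing.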

Row | Sequence | binding signal
1 | GCCTTATTACCATTTTCAGTGTTTACCTGATTTGAAAGCTCGGAGTCACCTAGTGCAG | 3490 fluorescence intensity (a.u.)
2 | GGACCTGATTTGGACTCAAATCAGGTGTTGACGAATAGAGCGGAGTCACCTAGTGCAG | 14600 fluorescence intensity (a.u.)
3 | CTAAATGGAAAATGAGGAAATGATTAGTTTTCAATATTTGCGGAGTCACCTAGTGCAG | 22100 fluorescence intensity (a.u.)
4 | ACCATCTACTCTCAACCAATCACAACTATTCTCTTTACCTCGGAGTCACCTAGTGCAG | 3870 fluorescence intensity (a.u.)
5 | TACTTTATTAATTGCCCCTTATTAAAAGTGATAAAACTAACGGAGTCACCTAGTGCAG | 10600 fluorescence intensity (a.u.)
6 | CTCAGGCTGATTTGAAATTTACATATGTGGTTACTTGCCACGGAGTCACCTAGTGCAG | 18700 fluorescence intensity (a.u.)
7 | GATGAAACGGAATTGAAGACAATTATTTGGGAGTGAATTACGGAGTCACCTAGTGCAG | 3240 fluorescence intensity (a.u.)
8 | CTCTCTTTCTTGGCCGTCTCTCTTATATCCCTCAATTTAACGGAGTCACCTAGTGCAG | 3520 fluorescence intensity (a.u.)
9 | TCTAATTAATGAACAACAGAATGTCTTCATTCAATTTGCCCGGAGTCACCTAGTGCAG | 32500 fluorescence intensity (a.u.)
10 | GCTGACTAATTATGTAACAGGGGTCAAACAAGTAGGTGGACGGAGTCACCTAGTGCAG | 20400 fluorescence intensity (a.u.)
11 | ATTTCTCAATATTGACAAATTTATTACCACAGATAGCAACCGGAGTCACCTAGTGCAG | 5680 fluorescence intensity (a.u.)
12 | ATCTAAGCTCATCTCAACCAATCACAACCATCGTTGATTTCGGAGTCACCTAGTGCAG | 3410 fluorescence intensity (a.u.)
13 | AACTGACTATGACTGGTGGGCCCTTCGACCTACTCCCACTCGGAGTCACCTAGTGCAG | 3730 fluorescence intensity (a.u.)
14 | AACTGATTAAAATCGCATGCTGTGCTGCCTCGTTGCTGCACGGAGTCACCTAGTGCAG | 19900 fluorescence intensity (a.u.)
15 | CTGCTAATCACCGCCAATCTTGCATTGTTCTTTCTTTCGTCGGAGTCACCTAGTGCAG | 28200 fluorescence intensity (a.u.)
16 | CCGACGGCTCAGATTGACTGCAGTAGTGGGTATCTCTTCTCGGAGTCACCTAGTGCAG | 13700 fluorescence intensity (a.u.)
17 | ATCAGAGCAGTTGATTTGATCGATCTCTTCCGCCGCCAAGCGGAGTCACCTAGTGCAG | 4420 fluorescence intensity (a.u.)
18 | CGTAAATGCTCATCTTGACTGCAGGGCACGGATTTTCAACCGGAGTCACCTAGTGCAG | 3950 fluorescence intensity (a.u.)
19 | CATAATGATTGCGTTGAACGTTGGTTGCTTGATCATCTTTCGGAGTCACCTAGTGCAG | 18600 fluorescence intensity (a.u.)
20 | AATCATAATTAGCATGTGTAGCTCACGCTAAAATTAAAAGCGGAGTCACCTAGTGCAG | 7260 fluorescence intensity (a.u.)
21 | CTTGCTAATCAGTCAATAAACCTAATCAGGAGACACCAAACGGAGTCACCTAGTGCAG | 16000 fluorescence intensity (a.u.)

Row | Sequence | binding signal
22 | TCTTAATTAGCCTTTGTGATTTAGCTTAATCACATGGCTACGGAGTCACCTAGTGCAG | 34800 fluorescence intensity (a.u.)
23 | AACCTAATTATTCTATGATTTGGTAATATGGTGCTTAAATCGGAGTCACCTAGTGCAG | 34300 fluorescence intensity (a.u.)
24 | TTGGTTGGTTGGTTGATTGCTCGCGCCCCGCGCGGTTGCGCGGAGTCACCTAGTGCAG | 6680 fluorescence intensity (a.u.)
25 | CCCTACATTTATAATAATTAACGAATTCACCCTCCTGACCCGGAGTCACCTAGTGCAG | 10300 fluorescence intensity (a.u.)
26 | CAACCTGCCAATCATGCATTGGGCCAGCCATCAGGCTACTCGGAGTCACCTAGTGCAG | 11300 fluorescence intensity (a.u.)
27 | GACCAAAATTGACTGGCACCAAACATTTTAAAGCTATTGGCGGAGTCACCTAGTGCAG | 41400 fluorescence intensity (a.u.)
28 | ATTTCAATTACTCACAGGATGATCCACTGGGCTTTACGGGCGGAGTCACCTAGTGCAG | 15100 fluorescence intensity (a.u.)
29 | TTGAGTGATTATTGACCATATAGCTTGAGTACTTTTATGGCGGAGTCACCTAGTGCAG | 27100 fluorescence intensity (a.u.)
30 | ACAGATTAGACACCAAATTTTCTGTCGACTGAGACAGATACGGAGTCACCTAGTGCAG | 20700 fluorescence intensity (a.u.)
31 | TCATCAATTATTTATACTCACTTTATTCGAATTGGCGCATCGGAGTCACCTAGTGCAG | 33400 fluorescence intensity (a.u.)
32 | TTTCATGTGATTTAAGAAACTAAATCTGTTCATGTGAAGACGGAGTCACCTAGTGCAG | 3830 fluorescence intensity (a.u.)
33 | CGGCCACATAATTAATTAACCTAACACAGAAGATTGATCACGGAGTCACCTAGTGCAG | 16500 fluorescence intensity (a.u.)
34 | CAAGATTTGGAGGTAGATTTTCTGTCAACAGATCGTTAGCCGGAGTCACCTAGTGCAG | 9160 fluorescence intensity (a.u.)
35 | TTACACTAAATTACATTCACTCTTACATTGCAATTACACCCGGAGTCACCTAGTGCAG | 7900 fluorescence intensity (a.u.)
36 | TAATAATTTAATGGAGAAGGGATCATAACTAATTGCCTACCGGAGTCACCTAGTGCAG | 15300 fluorescence intensity (a.u.)
37 | AACAATATATAGGTAATTAATTGATGGTTAAAGTTTAAATCGGAGTCACCTAGTGCAG | 13800 fluorescence intensity (a.u.)
38 | TATTGATTTAATGAAACTAATTTGGTATTATAAATATTACCGGAGTCACCTAGTGCAG | 32200 fluorescence intensity (a.u.)
39 | TTTTAATCTTTGGCCAATTATGGTTGAATACAGCCAGCTCCGGAGTCACCTAGTGCAG | 7840 fluorescence intensity (a.u.)
40 | GGTGCAATCATATTATAGATTGGATTAATAATTTAAGAGACGGAGTCACCTAGTGCAG | 40200 fluorescence intensity (a.u.)
41 | GTGAAGATTAAGAAAATTTAAACACCTCGTGAATGCAGAGCGGAGTCACCTAGTGCAG | 4080 fluorescence intensity (a.u.)
42 | CTCTTCCAATCTAAAATAACGAATGCAGCCTTAGGAAATGCGGAGTCACCTAGTGCAG | 3480 fluorescence intensity (a.u.)
